Assay results reported in PubChem BioAssay AID1346428 (National Center for Advancing Translational Sciences (NCATS), 2018).
Where “and” joins values, the source holds several entries; their conditions need not be identical. Identical values can stand only once. Screen size: about 48,000 compounds; about 1,200 (2.5%) were called active. Roughly 2% stayed inconclusive and do not appear here.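 Rule for the calls: active = activation of at least 60% and not above a set upper limit (about 1 call in 100 departs from these limits); inconclusive = activation of 40% to 60%, or above that upper limit; inactive = activation under 40%.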 Some of the results follow.

What follows are compounds tested against Probable G-protein coupled receptor 32 (Homo sapiens) (UniProt O75388) (assay: qHTS for Agonists of Human Resolvin D1 Receptor DRV1). Conditions: CHO-K1 GPR32 beta-arrestin PathHunter luminescence, 90 min; at 76.9 µM; active compounds read high; zero percent set by DMSO-only wells.
UniProt O75388, sequence (O75388 whole entry, looked up, the tested form may be a part): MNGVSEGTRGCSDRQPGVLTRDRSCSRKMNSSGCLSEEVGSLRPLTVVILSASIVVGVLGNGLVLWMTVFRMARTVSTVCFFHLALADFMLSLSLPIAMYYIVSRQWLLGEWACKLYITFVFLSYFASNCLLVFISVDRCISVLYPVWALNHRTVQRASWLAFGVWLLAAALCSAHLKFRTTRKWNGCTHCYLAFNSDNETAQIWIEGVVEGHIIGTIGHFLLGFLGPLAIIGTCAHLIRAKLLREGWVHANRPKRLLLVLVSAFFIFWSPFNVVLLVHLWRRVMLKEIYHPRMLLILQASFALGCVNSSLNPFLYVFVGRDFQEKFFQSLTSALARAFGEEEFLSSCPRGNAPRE
In short: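 PathHunter enzyme-fragment complementation, CHO-K1 GPR32 stable line; 2,500 cells/well, overnight attach; cpd 90 min 37 °C 5% CO2; detection reagent 1 h RT; chemiluminescence. DMSO = EC0.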
Note: 0% is about no effect.

activation, inactive:
CCC(C)NC(=O)CSc1nc2c(sc3ccccc32)c(=O)n1Cc1ccccc1Cl (centres undefined) -21%, Cc1ccc(C)c(Cn2c3ccccc3c3cnn(CC(=O)NCc4ccccc4)c(=O)c32)c1 23.9%, Cc1ccc(NC(=O)CSc2nc(-c3ccco3)nc3cc(=O)[nH]n23)cc1C -7.04%, Clc1ccccc1CNc1ncnc2c1c(-c1ccccc1)cn2-c1ccccc1 -6.9%, Fc1ccccc1Cn1c(-c2ccccc2)nc2ccccc21 -38.6%, COCCCNC(=O)CSc1nc2c(sc3ccccc32)c(=O)n1CCCC(=O)NCCOC -3.08%, Cc1ccccc1OCc1nnc(SCc2cc(=O)c3cccc(F)c3[nH]2)n1C 26.1%, COc1cccc(N2CC(NC(=O)c3cccc(OC)c3OC)CC2=O)c1 (centres undefined) -5.27%, CC(=O)c1ccc(NC(=O)COCc2cc(-c3ccco3)on2)cc1 -12.5%, COc1ccc2c(c1)c1c(c(=O)n(-c3cccc(Cl)c3)c(=O)n1CC(=O)N1CCCC1)n2C -0.718%, Cc1ccc(-c2cc(C(=O)Oc3ccccc3)c3cc(C)ccc3n2)cc1 4.86%, Clc1ccccc1CN1CCc2sccc2C1 39.4%, CCC1CCCCN1CCCNC(=O)CN1C(=O)CSc2ccc(S(=O)(=O)N3CCOCC3)cc21 (centres undefined) -16.1%, COc1ccc2nc(NC(=O)c3nc(S(=O)(=O)Cc4cccc(C)c4)ncc3Cl)sc2c1 -6.13%, CCOC(=O)Cn1nc(C)c(NC(=O)COc2ccc(Cl)cc2C)c1C 38.9%, CCOc1ccccc1NC(=O)Cn1ccn(Cc2ccc(C)cc2)c(=O)c1=O -9.27%, Cc1cccc2c1-c1sc(C(=O)N(C)c3cccc(C(F)(F)F)c3)cc1CO2 -26.7%, CC(=O)C1=C(c2ccc(C)c(C)c2)N(C(C)=O)n2c(nnc2-c2ccc(Cl)cc2)S1 -19.4%, CCNC(=O)c1nn(-c2ccccc2C)nc1CO -12.5%, Cc1cccc(CNC(=O)CCCn2c(=O)c3cccn3c3ccc(F)cc32)c1 -26.2%, Cc1csc2nc(COc3ccccc3NC(=O)c3ccc(C(C)(C)C)cc3)cc(=O)n12 20%, N#Cc1cccc(NC(=O)C2CCN(S(=O)(=O)c3ccc4[nH]c(=O)ccc4c3)CC2)c1 -5.29%, Cc1ccccc1-n1nc(CO)c(C(=O)NCc2cccs2)n1 -14%, Cc1ccc(CN2CCN(CC(=O)Nc3ccc(C)c(C)c3)S2(=O)=O)cc1 -10.9%, O=C(Cn1c(=O)n(-c2ccccc2Cl)c(=O)c2sc3ccccc3c21)NC1CCCCC1 -9.83%, Cc1c(NC(=O)c2nc3ccccc3nc2N2CCCCC2)cccc1[N+](=O)[O-] -37.1%, Cc1ccccc1OC(=O)CSc1nnc(-c2ccc(F)cc2)o1 -5.42%, NC(=O)C1=CN(C2OC(COP(=O)(O)OP(=O)(O)OC[C@H]3O[C@@H](n4cnc5c(N)ncnc54)[C@H](OP(=O)(O)O)[C@@H]3O)C(O)C2O)C=CC1 (some centres undefined) 11.3%, Cc1c(C)c2c(c(C)c1OC(=O)c1cccnc1)CC[C@@](C)(CCC[C@H](C)CCC[C@H](C)CCCC(C)C)O2 -6.93%, CCOC(=O)c1cc(C)n(CC2CCC(C(=O)Nc3ccc(C)c(F)c3)CC2)c1C (centres undefined) -7.76%, CN(C)CCCN1c2ccccc2CCc2ccc(Cl)cc21 32.4% and -9.49%, Cc1ccc(C(=O)Nc2ccc(-c3nc4ccccc4s3)cc2C)cc1C 20.7%, COC(=O)c1ccccc1NC(=O)Nc1nnc(N2CCC(C)CC2)s1 -1.1%, CCOc1cc(CNC(=O)NC2COc3ccc(OC)cc3C2)cc(OCC)c1OCC (centres undefined) -13%, COc1ccc(N2CC(NC(=O)CCCc3ccccc3)CC2=O)cc1 (centres undefined) -12.5%, CC(=O)c1ccc(NC(=O)CSc2nc(-c3cccc(F)c3)nc3c2c(=O)n(C)c(=O)n3C)cc1 -7.44%, Cc1ccc2nc(N(Cc3cccnc3)C(=O)CCS(=O)(=O)c3ccccc3)sc2c1 -12.4%, CCOc1ccc(CCNC(=O)CN2N=C(c3ccccc3)CCC2=O)cc1OCC -19%, CCCCN(CC)CCCNC(=O)c1cc2c(=O)[nH]c3ccccc3c2s1 14.6%, CN1C(C(=O)Nc2ccc(F)cc2F)=CC(c2ccc3c(c2)OCO3)=NS1(=O)=O -15.1%, Cc1cc(C)cc(NC(=O)CN2C(=O)c3ccccc3Sc3ncccc32)c1 -3.94%, COc1ccc(CNC(=O)c2ccc3c(c2)nc2n3CCOC2)c(OC)c1 -8.83%, Cc1ccc(CN(Cc2ccco2)C(=O)COc2ccc(C(C)C)cc2)cc1 -20.9%, Cc1cc(NC(=O)C2=C(O)c3ccccc3S(=O)(=O)N2C)no1 -15.2%, Cc1ccc(-c2cc(C(F)(F)F)c(C#N)c(SCC(=O)Nc3ccccc3)n2)cc1 -29.6%, COc1ccc(OC)c(CCNC(=O)c2csc3c2CCCCC3)c1 5.49%, CCOc1cccc(C2c3c(-c4cc(C)ccc4O)n[nH]c3C(=O)N2Cc2ccco2)c1 (centres undefined) 28.1%, Cc1ccc(CNC(=O)c2cc3c(=O)n(Cc4cccnc4)ccc3nc2C)cc1 -7.97%, CCOC(=O)C(C)NC(=O)c1c(C)oc2ncn(CC(C)C)c(=O)c12 (centres undefined) -4.51%, CCOC(=O)C1CCN(C(=O)c2ccc3c(=O)n4nc(Nc5cc(C)ccc5C)sc4nc3c2)CC1 -3.53%, CCC(=O)C1=C(c2cccc(OC)c2)N(C(=O)CC)n2c(nnc2C2CCCCC2)S1 -44.8%, CCn1cc(C(=O)N2CCN(c3ccc(C(C)=O)cc3)CC2)c2cc(OC)c(OC)cc2c1=O -0.639%, COc1cccc(NC(=O)C2CCN(c3nn4cc(-c5ccc(F)cc5)nc4s3)CC2)c1 -1.49%, Cc1cccc(C)c1OCc1nc2c3c(-c4ccccc4)c(-c4ccccc4)oc3ncn2n1 6.69%, Cc1cc2c(cc1S(=O)(=O)NCc1ccccc1Cl)OCCN2C -35.5%, Cc1ccc(C)c(NC(=O)c2ccc3c(O)c(S(=O)(=O)c4ccc(Cl)cc4)c(=O)[nH]c3c2)c1 -19.3%, CCN(CC)c1nn2c(=O)c(C(=O)NCCc3ccccc3)cnc2s1 2.58%, COc1ccc(OC)c(NC(=O)c2cc3c(=O)oc4ccccc4c3s2)c1 -1.81%, CCCCSCCCNC(=O)CN1C(=O)c2cccnc2Oc2ccc(Cl)cc21 -9.25%, CCOc1ccc(-c2nonc2NC(=O)c2oc3cc(C)ccc3c2C)cc1 -14.5%, O=C(NCc1ccc(F)cc1)c1ccc2c(Cl)c3c(nc2c1)CCCC3 -26.3%, Fc1ccc(-c2noc3ncnc(N4CCN(c5ccccc5)CC4)c23)cc1 -7.88%, COc1ccc(S(=O)(=O)N2CCN(c3ccccc3F)CC2)cc1-c1noc(C)n1 -14.8%, Cc1cn2c(=O)cc(COc3cccc(NC(=O)c4ccccc4C)c3)nc2s1 -2.55%, COc1ccc(NC(=O)C2CCN(S(=O)(=O)c3ccc4[nH]c(=O)ccc4c3)CC2)c(OC)c1 42.1%, CCOC(=O)c1ccccc1NC(=O)C(=O)Nc1ccc2nc3n(c(=O)c2c1)CCCCC3 0.292%, CCc1cccc(-n2c(C)nc3c(cnn3-c3ccc(Cl)cc3)c2=O)c1 16.8%, CC(=O)N1CCOc2cc(S(=O)(=O)Nc3cccc(C(F)(F)F)c3)c(Cl)cc21 -25.9%, Cc1cc(C)cc(NC(=O)N2CCC(N3CCCCC3)CC2)c1 6.02%, CCOC(=O)c1c(-c2ccccc2)oc2ccc(N(C(C)=O)S(=O)(=O)c3cc(C)ccc3C)cc12 -9.29%, CCOC(=O)c1[nH]c(C)c(CCC(=O)NCc2ccccc2)c1C -14.5%, COc1ccc(OC)c(NC(=O)Cc2coc3ccc(C(C)C)cc23)c1 -7.54%, CCc1c(C)nc(SCC(=O)N2CCN(c3ccccc3OC)CC2)[nH]c1=O -21.5%, Cc1ccc(O)c(C(CC(=O)NCC2(c3ccccc3)CCCC2)c2ccccc2)c1 (centres undefined) 23.6%, O=C(O)[C@@H]1C[C@@H](C(=O)O)N1 -1.78%, CCOc1ccc(CNC(=O)C2CCN(c3nnc(-n4cccc4CNc4ccc(C)cc4)s3)CC2)cc1OC -8.4%, Cc1ccc(-n2ncc(C(=O)N3CCN(c4cccc(C)c4)C(C)C3)c2C2CCN(C(=O)OC(C)(C)C)CC2)cc1 (centres undefined) -21.3%, Cc1ccc(CNC(=O)Cn2nc(C)n3cccc3c2=O)cc1 -9.11%, Cc1c2cnn(CC(=O)N3CCN(c4ccc(F)cc4)CC3)c(=O)c2c(C)n1Cc1ccc(F)cc1 -8.86%, O=C(NCc1ccc(Cl)cc1)c1cc(S(=O)(=O)N2CCCCC2)c[nH]1 1.85%, CCN1CCSc2ccc(C(=O)NC(C)c3ccccc3)cc21 (centres undefined) -28.3%, CCOc1ccc2nc(NC(=O)c3cc(=O)c4ccc(C)cc4o3)sc2c1 -11%, Cc1cc(C)cc(C(=O)Nc2ccc(-c3nc4ncccc4o3)cc2)c1 17.3%, CCOc1ccc(N2CC(c3nc4ccccc4n3Cc3cccc(Cl)c3)CC2=O)cc1 (centres undefined) -20.2%
